# The supplement of paper PMC8728848
# This is one part of the list.
# Columns and labels:
# Assay in all cases: glycan array binding signal (z-score within array); higher = stronger binding
# Details in all cases: glycan notation: IUPAC condensed, linker removed
# [1] = target: Fuc(a1-2)[GalNAc(a1-3)]Gal(b1-4)GlcNAc(b1-3)Gal(b1-4)GlcNAc
# Outline: (§1)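 Columns mapping to the same glycan were averaged after glycan names were converted to IUPAC-condensed notation. The data come from 3228 arrays in the Consortium for Functional Glycomics database, limited to those with an available protein sequence. Binding is reported as a within-array Z-score averaged across arrays of one protein sequence and across linkers.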
# [2] = target: Fuc(a1-2)[GalNAc(a1-3)]Gal(b1-4)GlcNAc(b1-3)Gal(b1-4)GlcNAc(b1-3)Gal(b1-4)GlcNAc
# Outline: as §1
# [3] = target: Fuc(a1-2)[GalNAc(a1-3)]Gal(b1-4)[Fuc(a1-3)]GlcNAc
# Outline: as §1
# [4] = target: Fuc(a1-2)[GalNAc(a1-4)]Gal(b1-4)GlcNAc
# Outline: as §1
# [5] = target: Fuc(a1-2)[GalNAc(b1-3)]Gal
# Outline: as §1
# [6] = target: Fuc(a1-3)GlcNAc
# Outline: as §1
# [7] = target: Fuc(a1-3)[Gal(b1-4)]Glc6S
# Outline: as §1
# [8] = target: Fuc(a1-3)[Gal(b1-4)]GlcNAc
# Outline: as §1
# [9] = target: Fuc(a1-3)[Gal(b1-4)]GlcNAc(b1-2)Man(a1-3)[Fuc(a1-3)[Gal(b1-4)]GlcNAc(b1-2)Man(a1-6)]Man(b1-4)GlcNAc(b1-4)GlcNAc
# Outline: as §1
# [10] = target: Fuc(a1-3)[Gal(b1-4)]GlcNAc(b1-3)Gal(b1-3)[Fuc(a1-4)]GlcNAc
# Outline: as §1
# [11] = target: Fuc(a1-3)[Gal(b1-4)]GlcNAc(b1-3)GalNAc
# Outline: as §1
# [12] = target: Fuc(a1-3)[Gal(b1-4)]GlcNAc(b1-4)Gal(b1-4)[Fuc(a1-3)]GlcNAc
# Outline: as §1
# [13] = target: Fuc(a1-3)[Gal(b1-4)]GlcNAc(b1-4)Gal(b1-4)[Fuc(a1-3)]GlcNAc(b1-4)Gal(b1-4)[Fuc(a1-3)]GlcNAc
# Outline: as §1
# [14] = target: Fuc(a1-3)[Gal(b1-4)]GlcNAc(b1-6)[Gal(b1-3)GlcNAc(b1-3)]Gal(b1-4)Glc
# Outline: as §1
# [15] = target: Fuc(a1-3)[Gal(b1-4)]GlcNAc6S
# Outline: as §1
# [16] = target: Fuc(a1-3)[Gal3S(b1-4)]GlcNAc
# Outline: as §1
# [17] = target: Fuc(a1-3)[Gal3S(b1-4)]GlcNAc6S
# Outline: as §1
# [18] = target: Fuc(a1-3)[GalNAc(b1-4)]GlcNAc
# Outline: as §1
# [19] = target: Fuc(a1-4)GlcNAc
# Outline: as §1
# [20] = target: Fuc(b1-3)GlcNAc
# Outline: as §1
# [21] = target: Gal(a1-2)Gal
# Outline: as §1
# [22] = target: Gal(a1-3)Gal
# Outline: as §1
# [23] = target: Gal(a1-3)Gal(b1-3)GlcNAc
# Outline: as §1
# [24] = target: Gal(a1-3)Gal(b1-3)GlcNAc(b1-2)Man(a1-3)[Gal(a1-3)Gal(b1-3)GlcNAc(b1-2)Man(a1-6)]Man(b1-4)GlcNAc(b1-4)GlcNAc
# Outline: as §1
# [25] = target: Gal(a1-3)Gal(b1-3)[Fuc(a1-4)]GlcNAc(b1-2)Man(a1-3)[Gal(a1-3)Gal(b1-3)[Fuc(a1-4)]GlcNAc(b1-2)Man(a1-6)]Man(b1-4)GlcNAc(b1-4)GlcNAc
# Outline: as §1
# [26] = target: Gal(a1-3)Gal(b1-4)Glc
# Outline: as §1
# [27] = target: Gal(a1-3)Gal(b1-4)GlcNAc
# Outline: as §1
# [28] = target: Gal(a1-3)Gal(b1-4)GlcNAc(b1-3)GalNAc
# Outline: as §1
# [29] = target: Gal(a1-3)Gal(b1-4)[Fuc(a1-3)]GlcNAc
# Outline: as §1
# [30] = target: Gal(a1-3)Gal(b1-4)[Fuc(a1-3)]GlcNAc(b1-2)Man(a1-3)[Gal(a1-3)Gal(b1-4)[Fuc(a1-3)]GlcNAc(b1-2)Man(a1-6)]Man(b1-4)GlcNAc(b1-4)GlcNAc
# Outline: as §1
# [31] = target: Gal(a1-3)GalNAc
# Outline: as §1
# [32] = target: Gal(a1-3)[Gal(a1-4)]Gal(b1-4)GlcNAc
# Outline: as §1
# [33] = target: Gal(a1-4)Gal(b1-3)GlcNAc(b1-2)Man(a1-3)[Gal(a1-4)Gal(b1-3)GlcNAc(b1-2)Man(a1-6)]Man(b1-4)GlcNAc(b1-4)GlcNAc
# Outline: as §1
# [34] = target: Gal(a1-4)Gal(b1-4)Glc
# Outline: as §1
# [35] = target: Gal(a1-4)Gal(b1-4)GlcNAc
# Outline: as §1
# [36] = target: Gal(a1-4)Gal(b1-4)GlcNAc(b1-2)Man(a1-3)[Gal(a1-4)Gal(b1-4)GlcNAc(b1-2)Man(a1-6)]Man(b1-4)GlcNAc(b1-4)GlcNAc
# Outline: as §1
# [37] = target: Gal(a1-4)Gal(b1-4)GlcNAc(b1-3)Gal(b1-4)Glc
# Outline: as §1
# [38] = target: Gal(a1-4)GlcNAc
# Outline: as §1
# [39] = target: Gal(a1-6)Glc
# Outline: as §1
# [40] = target: Gal(b1-2)Gal
# Outline: as §1
# [41] = target: Gal(b1-3)Gal
# Outline: as §1
# [42] = target: Gal(b1-3)Gal(b1-4)GlcNAc
# Outline: as §1
# [43] = target: Gal(b1-3)Gal(b1-4)GlcNAc(b1-2)Man(a1-3)[Gal(b1-3)Gal(b1-4)GlcNAc(b1-2)Man(a1-6)]Man(b1-4)GlcNAc(b1-4)GlcNAc
# Outline: as §1
# [44] = target: Gal(b1-3)GalNAc
# Outline: as §1
# [45] = target: Gal(b1-3)GalNAc(a1-3)[Fuc(a1-2)]Gal(b1-4)Glc
# Outline: as §1
binder,measurement,setting,value
"Gal 3 (Homo sapiens), P17931 (protein) MADNFSLHDALSGSGNPNPQGWPGAWGNQPAGAGGYPGASYPGAYPGQAPPGAYPGQAPPGAYHGAPGAYPGAPAPGVYPGPPSGPGAYPSSGQPSAPGAYPATGPYGAPAGPLIVPYNLPLPGGVVPRMLITILGTVKPNANILDFQRGNDVAFHFNPRFNENNRRVIVCNTKLDNNWGREERQSVFPFESGKPFKIQVLVEPDHFKVAVNDAHLLQYNHRVKKLNEISKLGISGDIDLTSASYTMI",glycan array binding signal (z-score),[1],3.3
same,glycan array binding signal (z-score),[2],4.1
same,glycan array binding signal (z-score),[3],-0.389
same,glycan array binding signal (z-score),[4],-0.378
same,glycan array binding signal (z-score),[5],-0.382
same,glycan array binding signal (z-score),[6],-0.358
same,glycan array binding signal (z-score),[7],-0.387
same,glycan array binding signal (z-score),[8],-0.382
same,glycan array binding signal (z-score),[9],-0.387
same,glycan array binding signal (z-score),[10],-0.385
same,glycan array binding signal (z-score),[11],-0.379
same,glycan array binding signal (z-score),[12],-0.382
same,glycan array binding signal (z-score),[13],-0.382
same,glycan array binding signal (z-score),[14],-0.389
same,glycan array binding signal (z-score),[15],-0.391
same,glycan array binding signal (z-score),[16],-0.387
same,glycan array binding signal (z-score),[17],-0.384
same,glycan array binding signal (z-score),[18],-0.392
same,glycan array binding signal (z-score),[19],-0.389
same,glycan array binding signal (z-score),[20],-0.382
same,glycan array binding signal (z-score),[21],-0.39
same,glycan array binding signal (z-score),[22],-0.391
same,glycan array binding signal (z-score),[23],0.324
same,glycan array binding signal (z-score),[24],-0.383
same,glycan array binding signal (z-score),[25],-0.39
same,glycan array binding signal (z-score),[26],-0.347
same,glycan array binding signal (z-score),[27],-0.086
same,glycan array binding signal (z-score),[28],0.949
same,glycan array binding signal (z-score),[29],-0.393
same,glycan array binding signal (z-score),[30],-0.384
same,glycan array binding signal (z-score),[31],-0.387
same,glycan array binding signal (z-score),[32],-0.388
same,glycan array binding signal (z-score),[33],-0.389
same,glycan array binding signal (z-score),[34],-0.394
same,glycan array binding signal (z-score),[35],-0.386
same,glycan array binding signal (z-score),[36],-0.388
same,glycan array binding signal (z-score),[37],0.248
same,glycan array binding signal (z-score),[38],-0.369
same,glycan array binding signal (z-score),[39],-0.388
same,glycan array binding signal (z-score),[40],-0.388
same,glycan array binding signal (z-score),[41],-0.392
same,glycan array binding signal (z-score),[42],-0.372
same,glycan array binding signal (z-score),[43],4.28
same,glycan array binding signal (z-score),[44],-0.387
same,glycan array binding signal (z-score),[45],1.11
